According to PubChem BioAssay AID686971 (National Center for Advancing Translational Sciences (NCATS), 2013):
Hit rate of the full screen: of about 360,000 compounds, about 7,500 (2.1%) were called active. This list was built around the results that the source calls inconclusive (neither active nor inactive); the mix of calls is not that of the screen. The call rests on the fitted dose curve; in most records, active means well fitted cell-killing curve with a large enough effect; inconclusive means small, poorly fitted or top-dose-only effect, or effect the other way, or another doubt; inactive means no such curve, though single readings can be large or run the other way. No potency is given beside an inconclusive call; the fits are too rough.

Assay: qHTS for induction of synthetic lethality in tumor cells producing 2HG: qHTS for the HT-1080-IDH1KD cell line
Details: HT-1080 IDH1 knockdown viability, ATP luminescence, 48 h; series mostly up to 46.1 µM
In short: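 Knockdown cells (IDH1KD HT-1080) received compounds 2 h after plating at 750 cells/well and were kept 48 h at 37 °C in 5% FBS RPMI. A CellTiter-Glo luminescence read gave % activity for curve fitting.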
Potency means the concentration at half of the fitted maximal effect; tags describe the fitted curve by direction and shape.

**Q.** For Cc1cc(NC(=O)NN2CCOCC2)nn1-c1c(Cl)cccc1Cl, which Potency is on record?
**A.** Its Potency is “inactive”.

**Q.** With Cc1cc(C)cc(NC(=S)NCCc2c[nH]c3ccccc23)c1 as the compound, how does the Potency read?
**A.** Its Potency is inconclusive [cytotoxic, single point].

**Q.** With Cc1cc(-c2nc(C)c(C(=O)NNS(=O)(=O)c3ccc(Cl)cc3Cl)s2)no1 as the compound, how does the Potency read?
**A.** Its Potency is inconclusive [cytotoxic, single point].

**Q.** For COc1ccc(Cn2c(CCC(=O)Nc3ccc(CC#N)cc3)nc3cccnc32)cc1, which Potency is on record?
**A.** Its Potency is inconclusive [cytotoxic, single point].

**Q.** Which Potency does the source give for CCOC(=O)Cc1ccc(Nc2nc(NCc3ccccc3)nc3ccsc23)cc1 here?
**A.** Its Potency is “inactive”.

**Q.** For Cc1cc(Nc2cccc([N+](=O)[O-])c2)c2ccccc2n1, which Potency is on record?
**A.** Its Potency is inconclusive [cytotoxic, partial curve, poor fit].

**Q.** With COC(=O)[C@@]12C[C@@H](CC(=O)NCc3ccc(C)o3)C(=O)N(Cc3ccco3)C1=CCC(C)(C)C2 as the compound, how does the Potency read?
**A.** Its Potency is “inactive”.

**Q.** Which Potency does the source give for CN(Cc1ccccc1)CC(O)COc1ccc(CNCc2ccc(Cl)s2)cc1 (configuration not stated) here?
**A.** The Potency was inconclusive [cytotoxic, single point].

**Q.** With CCN(CC)CCCNC(=O)c1cc2c(=O)[nH]c3ccc(C)cc3c2s1 as the compound, how does the Potency read?
**A.** The Potency was inconclusive [cytotoxic, single point].

**Q.** For COc1ccc(-n2c(C)cc(C(=O)COC(=O)Cn3cnc4ccccc43)c2C)cc1, which Potency is on record?
**A.** Its Potency is inconclusive [cytotoxic, single point].

**Q.** For O=C(NCC(c1ccc(F)cc1)N1CCOCC1)c1c(F)cccc1F (configuration not stated), which Potency is on record?
**A.** Its Potency is “inactive”.

**Q.** With CCOC(=O)C1CCCN(S(=O)(=O)c2ccc(OC)c3ccccc23)C1 (configuration not stated) as the compound, how does the Potency read?
**A.** Its Potency is inconclusive [cytotoxic, single point].

**Q.** With CC1(C)Cc2c(sc(NC(=O)c3ccccc3)c2C(=O)O)CO1 as the compound, how does the Potency read?
**A.** The Potency was inconclusive [cytotoxic, single point].

**Q.** For Cc1ccc(-c2nn(-c3cccc(F)c3)cc2CN(Cc2nccn2C)C(C)C)o1, which Potency is on record?
**A.** Its Potency is inconclusive [cytotoxic, single point].

**Q.** With Cc1cc(-c2ccc(C)c(S(=O)(=O)NCC3CCN(Cc4ccc(F)cc4)CC3)c2)on1 as the compound, how does the Potency read?
**A.** Its Potency is inconclusive [cytotoxic, single point].

**Q.** Which Potency does the source give for Cc1cccc2sc(NNC(=O)c3ccc(S(=O)(=O)N4CCCC(C)C4)cc3)nc12 (configuration not stated) here?
**A.** The Potency was active: 20.6 µM.

**Q.** With O=C1NC[C@H](Cc2ccccc2)N(C[C@@H]2CCCN2C[C@H](Cc2ccc(O)cc2)N2C[C@H](Cc3ccc(O)cc3)N(CC3CCCCC3)C(=O)C2=O)C1=O as the compound, how does the Potency read?
**A.** Its Potency is inconclusive [cytotoxic, single point].
